{"source": "paper PMC4336329", "about": "(PLoS ONE, 2015)", "note": "Out of some 310,000 compounds screened, about 2,200 (0.71%) showed an effect of 50% or more. The effect is printed as a negative number. Some of the results follow.", "data": [{"target": "human ether-à-go-go-related gene (hERG) potassium channel (human, UniProt Q12809)", "sequence (Q12809 whole entry, looked up)": "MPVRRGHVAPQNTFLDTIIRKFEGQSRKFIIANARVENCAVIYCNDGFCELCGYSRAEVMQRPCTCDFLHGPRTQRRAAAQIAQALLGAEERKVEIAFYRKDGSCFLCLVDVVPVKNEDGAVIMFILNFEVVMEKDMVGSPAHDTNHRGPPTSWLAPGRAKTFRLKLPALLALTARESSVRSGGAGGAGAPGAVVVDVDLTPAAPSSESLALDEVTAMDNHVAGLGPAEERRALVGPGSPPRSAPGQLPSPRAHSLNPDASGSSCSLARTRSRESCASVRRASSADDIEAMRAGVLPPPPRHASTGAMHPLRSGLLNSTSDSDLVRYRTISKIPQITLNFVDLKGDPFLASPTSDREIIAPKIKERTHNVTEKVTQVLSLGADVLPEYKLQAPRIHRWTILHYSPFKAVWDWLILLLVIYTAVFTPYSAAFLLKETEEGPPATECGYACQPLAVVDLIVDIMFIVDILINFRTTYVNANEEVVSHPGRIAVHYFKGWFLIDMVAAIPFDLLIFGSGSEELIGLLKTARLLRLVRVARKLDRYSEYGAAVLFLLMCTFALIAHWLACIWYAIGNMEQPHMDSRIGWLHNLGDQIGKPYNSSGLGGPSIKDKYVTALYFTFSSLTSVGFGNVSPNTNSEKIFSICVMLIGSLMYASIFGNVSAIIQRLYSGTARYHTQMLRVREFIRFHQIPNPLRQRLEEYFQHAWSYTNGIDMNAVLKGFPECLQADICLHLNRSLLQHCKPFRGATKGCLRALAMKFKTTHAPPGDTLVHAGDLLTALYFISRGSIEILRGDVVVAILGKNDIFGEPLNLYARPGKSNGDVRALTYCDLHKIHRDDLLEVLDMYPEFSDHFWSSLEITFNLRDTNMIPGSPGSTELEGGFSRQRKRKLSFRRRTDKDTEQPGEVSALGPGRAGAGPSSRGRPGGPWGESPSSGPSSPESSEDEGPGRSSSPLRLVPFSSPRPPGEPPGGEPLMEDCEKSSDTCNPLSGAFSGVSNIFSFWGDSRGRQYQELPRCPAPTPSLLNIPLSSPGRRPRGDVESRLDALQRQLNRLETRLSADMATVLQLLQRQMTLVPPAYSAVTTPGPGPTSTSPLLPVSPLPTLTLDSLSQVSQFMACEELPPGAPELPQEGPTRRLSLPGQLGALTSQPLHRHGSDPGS", "test": "primary screen, population patch clamp on CHO cells stably expressing hERG", "units": {"hERG current change (%, negative = inhibition) at 1uM": "%"}, "values": [{"molecule": "O=C1c2ccccc2C(=O)N1CC1c2ccccc2CCN1C(=O)N1CCOCC1", "note": "(stereo not shown)", "hERG current change (%, negative = inhibition) at 1uM": -2.07}, {"molecule": "COc1ccc2nc3c(cc2c1)c(NC(=O)c1cccs1)nn3CC(C)C", "hERG current change (%, negative = inhibition) at 1uM": 8.83}, {"molecule": "Cc1ccc(S(=O)(=O)/N=c2\\sccn2C)cc1", "hERG current change (%, negative = inhibition) at 1uM": 16.9}, {"molecule": "CCOC(=O)/C(=C\\Nc1ccc(OC(F)(F)F)cc1)Sc1ncc(C(F)(F)F)cc1Cl", "hERG current change (%, negative = inhibition) at 1uM": 12.6}, {"molecule": "Cc1ccc(C(=O)CC2C(=O)N(c3ccccc3)C(=S)N2c2ccccc2)cc1", "note": "(stereo not shown)", "hERG current change (%, negative = inhibition) at 1uM": -0.545}, {"molecule": "O=C1c2ccccc2C(=O)N1CCSc1nc2ccccc2c(=O)n1CCCN1CCOCC1", "hERG current change (%, negative = inhibition) at 1uM": 8.97}, {"molecule": "CC(C)OC(=O)Cn1nc(C(c2ccccc2)c2ccccc2)oc1=O", "hERG current change (%, negative = inhibition) at 1uM": 3.61}, {"molecule": "CNc1nc(Cl)c(SC)c(N2CCOCC2)n1", "hERG current change (%, negative = inhibition) at 1uM": 4.79}, {"molecule": "COc1cc(NS(=O)(=O)c2ccc(NC(C)=O)cc2)ncn1", "hERG current change (%, negative = inhibition) at 1uM": 2.6}, {"molecule": "COc1ncccc1-c1nnn(-c2ccc(F)cc2)n1", "hERG current change (%, negative = inhibition) at 1uM": 10.2}, {"molecule": "CCOC(=O)c1ccc(-c2ccc(C3Nc4ccccc4C(=O)N3O)o2)cc1", "note": "(stereo not shown)", "hERG current change (%, negative = inhibition) at 1uM": 17.6}, {"molecule": "Cl.N#Cc1ccc(OCC(=O)N2CCN(Cc3ccc4c(c3)OCO4)CC2)cc1", "hERG current change (%, negative = inhibition) at 1uM": -22}, {"molecule": "CCC(C)(C)NC(=O)C(c1ccc(F)cc1)N(Cc1ccc(OC)cc1)C(=O)c1cnccn1", "note": "(stereo not shown)", "hERG current change (%, negative = inhibition) at 1uM": 2.57}, {"molecule": "CC(NC(=O)c1ccco1)C(c1cccs1)N1CCN(c2ccccc2F)CC1", "note": "(stereo not shown)", "hERG current change (%, negative = inhibition) at 1uM": 4.85}, {"molecule": "CC(C)(C)C(=O)NC(=S)NNC(=O)c1sc2ccccc2c1Cl", "hERG current change (%, negative = inhibition) at 1uM": 3.94}, {"molecule": "O/N=C1/C(=C\\c2ccccc2)N2CCC1CC2", "hERG current change (%, negative = inhibition) at 1uM": 8.41}, {"molecule": "NS(=O)(=O)c1ccc(Sc2nc3ccccc3s2)c([N+](=O)[O-])c1", "hERG current change (%, negative = inhibition) at 1uM": 11.7}, {"molecule": "CC(C)C1S/C(=N/N=C/c2ccco2)NC1=O", "note": "(stereo not shown)", "hERG current change (%, negative = inhibition) at 1uM": 0.697}, {"molecule": "COc1ccccc1NC(=O)CSc1n[nH]c(Cc2ccccc2)n1", "hERG current change (%, negative = inhibition) at 1uM": 14}, {"molecule": "O=C1C2C(c3ccccc3)C=CC(c3ccccc3)C2C(=O)N1CCO", "note": "(stereo not shown)", "hERG current change (%, negative = inhibition) at 1uM": 5.96}, {"molecule": "CC1(C)CC(NS(=O)(=O)c2ccc(S(=O)(=O)N3CCOCC3)cc2)CCO1", "note": "(stereo not shown)", "hERG current change (%, negative = inhibition) at 1uM": 5.73}, {"molecule": "CCOC(=O)c1ccc(NC(=S)NCCc2ccc(F)cc2)cc1", "hERG current change (%, negative = inhibition) at 1uM": 16.5}, {"molecule": "Cc1cccc(C(=O)c2cn[nH]c2-c2ccccc2O)c1", "hERG current change (%, negative = inhibition) at 1uM": 12.9}, {"molecule": "CC(C)Cn1c(S(=O)(=O)O)nc2ccccc21", "hERG current change (%, negative = inhibition) at 1uM": 10.5}, {"molecule": "CCOc1ccc(N2C(=O)c3cccnc3C2Nc2ccc(C)c(C)c2)cc1", "note": "(stereo not shown)", "hERG current change (%, negative = inhibition) at 1uM": -11.5}]}]}
